According to publication PMC7819943, “Rice protein-binding microarrays: a tool to detect cis-acting elements near promoter regions in rice”:
Some of the results follow.

biological target: T1, OsWOX13 (Oryza sativa, UniProt Q5QMM3 1-267); test: protein-binding microarray (RPBM); PBS, 2% BSA, 51.3 ng/ul salmon testes DNA, 50 uM zinc acetate, 200 nM TF, 25 C, 1 h; high values mean tight binding; conditions: protein: recombinant; tags: N-terminal polyhistidine and DsRed monomer fusion (pET32a); label: CyDye5-dUTP incorporated in the synthesized complementary strand; 3' TTTTT single-stranded linker to array surface; dsDNA, one strand shown
T1 sequence: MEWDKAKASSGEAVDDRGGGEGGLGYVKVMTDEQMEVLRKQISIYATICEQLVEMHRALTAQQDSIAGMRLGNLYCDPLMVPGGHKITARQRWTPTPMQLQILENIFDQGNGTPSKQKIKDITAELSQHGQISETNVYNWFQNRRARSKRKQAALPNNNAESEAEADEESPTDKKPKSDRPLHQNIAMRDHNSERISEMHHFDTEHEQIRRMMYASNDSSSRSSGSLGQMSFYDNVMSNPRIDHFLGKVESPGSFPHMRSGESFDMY
Outline: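 The binding signal is fluorescence intensity per feature, in arbitrary units, read on an Axon 4000B scanner. Polyhistidine- and DsRed-tagged transcription factors (N-terminal fusions) from E. coli BL21-CodonPlus were purified on Ni–NTA and applied at 200 nM for 1 h at 25 °C to a double-stranded, BSA-blocked custom Agilent array in buffer with 50 µM zinc acetate.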

Point of comparison: “GGCTAAAGTAAAACTTAATTAGTGAGTTGTTTATCTTTTCCGGAGTCACCTAGTGCAG”, binding signal 3420 fluorescence intensity (a.u.). Against it:
- CTCTTGATTGTATCCTTAGGCACTTTGTATATTCTCGAGTCGGAGTCACCTAGTGCAG — higher, 31700 fluorescence intensity (a.u.)
- CTGGCTTGATTTAGTTGTCTCGACGTTGTTCAGGTGGTCTCGGAGTCACCTAGTGCAG — higher, 6700 fluorescence intensity (a.u.)
- AGAATGATTTAAGTGAGCGGCTTAAATTTTATTATCGCTTCGGAGTCACCTAGTGCAG — higher, 18600 fluorescence intensity (a.u.)
- CGTGATGGAAAGATTACATCACATCCTATCTTTTGGATATCGGAGTCACCTAGTGCAG — higher, 20000 fluorescence intensity (a.u.)
- ACAAAGATTTGTTATCAAATAGTTGCAAATGATTAGTTAGCGGAGTCACCTAGTGCAG — higher, 4120 fluorescence intensity (a.u.)
- AATAATTTTGGAATGGCACCGAATTACCCTCTCCACCTCGCGGAGTCACCTAGTGCAG — higher, 9720 fluorescence intensity (a.u.)
- ACTTAATTTTAGTCTTAATATTTAGACACTAATTTAGAGTCGGAGTCACCTAGTGCAG — higher, 46100 fluorescence intensity (a.u.)
- TCTAAATCAAAACCACATGATAAATTTAAAACCCCACAGACGGAGTCACCTAGTGCAG — lower, 3180 fluorescence intensity (a.u.)
- AAAATCACTGGATTAATTGATTGCGTCGTACTATCATTGCCGGAGTCACCTAGTGCAG — higher, 64600 fluorescence intensity (a.u.)
- TCTGAATAAATTTTATAAACCAAAATTTGAATACAAATTCCGGAGTCACCTAGTGCAG — lower, 3170 fluorescence intensity (a.u.)
- TACTAGATTGCTATATTATGGGACGGAGGGAGTACATCCCCGGAGTCACCTAGTGCAG — higher, 16500 fluorescence intensity (a.u.)
- AAATATCTTCAAATTATAAATCATGTAAATTTAATCCATTCGGAGTCACCTAGTGCAG — higher, 6340 fluorescence intensity (a.u.)
- GATTCTATCAGTTGGAAAATTGACTAAAATTTTAAGAAAACGGAGTCACCTAGTGCAG — higher, 14800 fluorescence intensity (a.u.)
- GTTAATTAAGAAATAAGCACGGAATAAGACAAGCATATAACGGAGTCACCTAGTGCAG — higher, 5840 fluorescence intensity (a.u.)
- TTAGATTAGATAATTATGAATGAGTATAAATGCTTCTGCTCGGAGTCACCTAGTGCAG — higher, 37300 fluorescence intensity (a.u.)
- CTACAATCATGTATTGGTTAATTGGGTGCATGCATGTATGCGGAGTCACCTAGTGCAG — higher, 25500 fluorescence intensity (a.u.)
- TGATTGATATATGGTTACATGTCTTTAGTTGTATATGAGTCGGAGTCACCTAGTGCAG — higher, 15100 fluorescence intensity (a.u.)
- TTTGTTAAATTTCTCAATTGATTCATAATTCTTTATTAGCCGGAGTCACCTAGTGCAG — higher, 10300 fluorescence intensity (a.u.)
- AGTCAATTTAATAGCCAATTCATACAATATTTACCTACAACGGAGTCACCTAGTGCAG — higher, 15700 fluorescence intensity (a.u.)
- CAAATTAATAATCAATTTATACAATAGTTATCTATAAATACGGAGTCACCTAGTGCAG — higher, 20000 fluorescence intensity (a.u.)
- TACTTAATTAATCATGTGTTAAAAGGCTGCTCCGTTTTGCCGGAGTCACCTAGTGCAG — higher, 40700 fluorescence intensity (a.u.)
- CGCCGTCGTCATCATTTGTCAATCAGTGACAGTCACGAGACGGAGTCACCTAGTGCAG — higher, 25000 fluorescence intensity (a.u.)
- CCAATAATTTCCTTTTCCCATAAGTTAAAGCTAAGCATTCCGGAGTCACCTAGTGCAG — higher, 5450 fluorescence intensity (a.u.)
- TTAAGATGATAGGTTGTTGGATTGAAATATGCCTATCAAACGGAGTCACCTAGTGCAG — higher, 15800 fluorescence intensity (a.u.)
- AATCAATCCATTAATATTTAACATGATCAGGCATTAGTCGCGGAGTCACCTAGTGCAG — higher, 23700 fluorescence intensity (a.u.)
- CCCATTAGAATTGATTGTGTTTACAGGGACTTGTATAAAACGGAGTCACCTAGTGCAG — higher, 10100 fluorescence intensity (a.u.)
- CCATGTTTCTATTACCGTTAATTAGGATAATAGTACGAATCGGAGTCACCTAGTGCAG — higher, 14400 fluorescence intensity (a.u.)
- GCATCGAAGATTGAAGCACTCAGTAGTCAGTATAGGTTATCGGAGTCACCTAGTGCAG — higher, 4430 fluorescence intensity (a.u.)
- GTTCAGATTAACAGTAATTAAAATAATGCAACCGTGGTGCCGGAGTCACCTAGTGCAG — higher, 29500 fluorescence intensity (a.u.)
- TAACCTACTGTCAATATAATTGATCAGGTCACTGAATTGACGGAGTCACCTAGTGCAG — higher, 13700 fluorescence intensity (a.u.)
- CCGATAGATGGTGATTGAGATTTTAGAGGCACACTTCTGCCGGAGTCACCTAGTGCAG — higher, 45800 fluorescence intensity (a.u.)
- TAATGTGAATGATGATTGTATAGGGTGCTGTACATTCCTTCGGAGTCACCTAGTGCAG — higher, 5000 fluorescence intensity (a.u.)
- TGAAATTTCATCCATCAATTGGAGTGCAACTTGTAATAGGCGGAGTCACCTAGTGCAG — higher, 13100 fluorescence intensity (a.u.)
- ACTTGCTAAATTGCTAAATGAGGATTTAGCAAGTGGATGTCGGAGTCACCTAGTGCAG — higher, 13500 fluorescence intensity (a.u.)
- ATTTGATCAAATTTTATTTTAAAATTCATATAATTTCGGACGGAGTCACCTAGTGCAG — higher, 7550 fluorescence intensity (a.u.)
- GGCTTTAATTGATCACTATGAATACTTGGCTTGTTGTCATCGGAGTCACCTAGTGCAG — higher, 49500 fluorescence intensity (a.u.)
- ATCCGATTAATTAATTTGATTTAATGTAATGTAATTAGGGCGGAGTCACCTAGTGCAG — higher, 64600 fluorescence intensity (a.u.)
- TTGACAAAATTTTGGTAAAATATGGTTGTTTGGTTTGTTTCGGAGTCACCTAGTGCAG — higher, 5940 fluorescence intensity (a.u.)
- TAAATTTAATTAGAGATTTGTTTAAATAATTTAAGACTAACGGAGTCACCTAGTGCAG — higher, 14200 fluorescence intensity (a.u.)
- AAATTAATTATAAATATTAAACGTAGACTATTAATAAAACCGGAGTCACCTAGTGCAG — higher, 15600 fluorescence intensity (a.u.)
- CTAATTGGCTGACGCCACAACTCCCACTTCGCCACCCTCACGGAGTCACCTAGTGCAG — higher, 32700 fluorescence intensity (a.u.)
